Data taken from PubChem BioAssay AID588342 (National Center for Advancing Translational Sciences (NCATS), 2011).
The campaign covered roughly 360,000 compounds. About 25,000 (6.9%) were called active. The inconclusive results got no clear call from the source; some entries with a clear call stand among them for comparison. Calls come from the whole dose curve; as a rule, active = well fitted inhibition curve with a large enough effect; inconclusive = small, poorly fitted or top-dose-only effect; inactive = flat fitted curve, though single readings scatter. Where the call is inconclusive, the potency comes from a doubtful curve fit.
Note: nearly all actives have a fitted effect of over 55% in size.
Potency is the fitted concentration of half-maximal effect; tags give direction and shape of the fitted curve.

What follows are compounds tested against Luciferin 4-monooxygenase (Photinus pyralis) (UniProt P08659) (assay: qHTS profiling assay for firefly luciferase inhibitor/activator using purifed enzyme and Km concentrations of substrates (counterscreen for miR-21 project)). Details: purified FLuc, luminescence inhibition; series mostly up to 57.5 µM.
Chain of UniProt P08659 (P08659 whole entry, looked up): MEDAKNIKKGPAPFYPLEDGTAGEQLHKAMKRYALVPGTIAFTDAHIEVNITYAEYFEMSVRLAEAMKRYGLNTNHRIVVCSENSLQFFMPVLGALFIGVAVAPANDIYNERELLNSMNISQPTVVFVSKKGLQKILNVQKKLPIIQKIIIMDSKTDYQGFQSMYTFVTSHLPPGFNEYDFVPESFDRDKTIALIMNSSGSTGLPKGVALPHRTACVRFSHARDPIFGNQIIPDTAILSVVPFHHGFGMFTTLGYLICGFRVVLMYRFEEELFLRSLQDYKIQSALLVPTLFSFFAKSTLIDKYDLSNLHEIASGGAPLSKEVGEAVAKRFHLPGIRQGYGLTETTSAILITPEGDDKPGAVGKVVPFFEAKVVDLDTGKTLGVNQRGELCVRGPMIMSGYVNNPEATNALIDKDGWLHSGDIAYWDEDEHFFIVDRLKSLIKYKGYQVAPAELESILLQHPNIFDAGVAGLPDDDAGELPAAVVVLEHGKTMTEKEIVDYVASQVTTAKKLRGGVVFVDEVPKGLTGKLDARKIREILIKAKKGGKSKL
Summary of the method: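 Biochemical qHTS of compounds, final roughly 60 µM downward over six points, against 10 nM purified firefly luciferase using Km concentrations of substrates (10 uM D-luciferin, 10 uM ATP) in Tris acetate pH 7.5 buffer; luminescence output.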
With `CC1(C(=O)NCCCNc2ncc(C(F)(F)F)cc2Cl)C=CCN1C(=O)c1ccccc1` (stereo not drawn) the Potency was inconclusive: 37.9 µM [inhibitor, partial curve, poor fit].
For `CC(=O)N1CCc2cc(S(=O)(=O)NC(CC(C)C)C(=O)NCCc3ccccc3)ccc21` (stereo not drawn), the Potency was “inactive”.
With `O=C(Nc1ccccc1C(=O)Nc1nnc(C(F)(F)F)s1)c1ccccc1Cl` the Potency was inconclusive: 23.9 µM [inhibitor, single point].
For `CC(C)CCNC(=O)c1csc2c1CCCCC2`, the Potency was inconclusive: 37.9 µM [inhibitor, partial curve, poor fit].
With `Cc1ccc(CNC(=O)CCNC(=O)N2CCn3c2nc2ccccc23)cc1` the Potency was inconclusive: 37.9 µM [inhibitor, partial curve, poor fit].
In the case of `Cc1cccc(-c2sc(Nc3ccccc3)n[n+]2-c2ccccc2)c1`, the Potency is reported as inconclusive: 26.9 µM [inhibitor, single point].
In the case of `Cc1ccc(NC(=O)C(c2ccccc2)N2CCN(C(=O)c3ccco3)CC2)cc1` (stereo not drawn), the Potency is reported as inconclusive: 37.9 µM [inhibitor, partial curve, poor fit].
In the case of `CCCCC1C(=O)N(c2ccccc2)N(c2ccccc2)C1=O`, the Potency is reported as inconclusive: 9.53 µM [inhibitor, partial curve].
`COc1ccc(OCc2cc(C(=O)NCCN3CCCC(O)C3)no2)c(Cl)c1` (stereo not drawn) was tested, and the Potency was inconclusive: 26.9 µM [inhibitor, single point].
With `COc1ccc(CCOC(=O)c2cccc(NC(C)=O)c2)cc1` the Potency was inconclusive: 26.9 µM [inhibitor, single point].
`Clc1ccc(-c2noc(COc3ccccc3)n2)cc1` was tested, and the Potency was active: 13.5 µM.
`CCc1cc2c(=O)[nH]c(N3CCOCC3)nc2s1` was tested, and the Potency was inconclusive: 21.3 µM [inhibitor, partial curve, poor fit].
For `Oc1ccccc1C1CC(c2cccs2)=NC(c2ccc(Cl)cc2)N1` (stereo not drawn), the Potency was inconclusive: 37.9 µM [inhibitor, partial curve, poor fit].
`O=C(NCC(c1ccco1)N1CCCCC1)c1cccc(S(=O)(=O)Nc2ccc(F)cc2)c1` (stereo not drawn) was tested, and the Potency was “inactive”.
`C=CCn1c(COc2ccc3c(c2)CCCC3)nnc1SCC(=O)Nc1cccc(SC)c1` was tested, and the Potency was active: 13.5 µM.
In the case of `CCn1c(SCC(=O)c2cc(C)n(CC3CCCO3)c2C)nc2ccccc21` (stereo not drawn), the Potency is reported as active: 26.9 µM.
With `COc1cc(-c2nnc(CSc3nnc(Nc4ccc(Oc5ccccc5)cc4)s3)o2)cc(OC)c1OC` the Potency was active: 9.53 µM.
In the case of `CCOc1ccc(Oc2ccccc2NC(=O)CN2C(=O)NC3(CCCC3)C2=O)cc1`, the Potency is reported as “inactive”.
`Cc1cc(N2CCCCC2)n2nc(C)c(-c3ccccc3)c2n1` was tested, and the Potency was active: 19 µM.
With `CCc1ccc(Nc2sc(C(=O)c3ccccc3)c(N)c2S(C)(=O)=O)cc1` the Potency was “inactive”.
For `O=C1ON=C(c2ccccc2)/C1=C/c1ccc(-c2ccccc2[N+](=O)[O-])o1`, the Potency was inconclusive: 16.9 µM [inhibitor, partial curve].
In the case of `CCOCCc1nn2c(=O)cc(COC(=O)CNC(=O)c3ccc(F)cc3)nc2s1`, the Potency is reported as “inactive”.
With `CS(=O)(=O)NCCCCNc1ccc(C(F)(F)F)cc1[N+](=O)[O-]` the Potency was inconclusive: 23.9 µM [inhibitor, partial curve, poor fit].
For `CCOc1ccc(CC(=O)NCCc2csc(-c3ccc(Cl)cc3)n2)cc1`, the Potency was “inactive”.
`S=c1[nH]nc(-c2ccco2)n1/N=C/c1ccccn1` was tested, and the Potency was inconclusive: 19 µM [inhibitor, partial curve, poor fit].
`Cc1ccn2c(NC3CCCC3)c(-c3ccsc3)nc2c1` was tested, and the Potency was active: 23.9 µM.
`CCc1ccc(C(=O)NC(CCSC)C(=O)O)cc1` (stereo not drawn) was tested, and the Potency was inconclusive: 37.9 µM [inhibitor, single point].
`Cc1ccc(N2C(=O)/C(=C\c3ccco3)SC2=S)cc1` was tested, and the Potency was inconclusive: 10.7 µM [inhibitor, partial curve, poor fit].
`CN(Cc1ccccc1)C(=O)c1cccc(NC(=O)c2nsc3ccccc23)c1` was tested, and the Potency was active: 9.53 µM.
In the case of `CN1CCN(C(=O)CCN2C(=O)/C(=C\c3ccc(Cl)cc3)SC2=S)CC1`, the Potency is reported as inconclusive: 37.9 µM [inhibitor, partial curve, poor fit].
For `Cc1cc(NS(=O)(=O)c2ccc(NC(=O)/C=C/c3ccc(Br)cc3)cc2)no1`, the Potency was active: 19 µM.
With `N/C(=N\c1nc2ccccc2o1)NC(=O)c1cccc(Br)c1` the Potency was “inactive”.
In the case of `Cc1ccc(O)c(NC(=O)C2CC(c3cccc(Br)c3)=NO2)c1` (stereo not drawn), the Potency is reported as “inactive”.
In the case of `NC(=O)CC1C(=O)N(c2ccc(F)cc2)C(=O)N1NC(=O)CCc1ccccc1` (stereo not drawn), the Potency is reported as “inactive”.
In the case of `Cc1ccccc1CNC(=O)Nc1cccs1`, the Potency is reported as active: 21.3 µM.
`Cc1ccc2[nH]c(-c3ccccc3)cc(=O)c2c1` was tested, and the Potency was active: 1.69 µM.
In the case of `CC(=O)c1ccc(-c2ccc(C(=O)N3CCCc4ccccc43)o2)cc1`, the Potency is reported as inconclusive: 37.9 µM [inhibitor, single point].
`COc1ccc(OC)c(CNC(=O)c2c(C)oc3ncn(C)c(=O)c23)c1` was tested, and the Potency was “inactive”.
For `O=C(O)CN1C(=O)/C(=C\c2ccc(OC(=O)c3ccco3)cc2)SC1=S`, the Potency was active: 7.57 µM.
For `CCOC(=O)c1c(C)oc2c1c(C(c1ccncc1)N1CCOCC1)c(O)c1ccccc12` (stereo not drawn), the Potency was inconclusive: 23.9 µM [inhibitor, single point].
In the case of `COC(=O)Nc1cc(C(=O)c2ccc(Cl)cc2Cl)c[nH]1`, the Potency is reported as inconclusive: 37.9 µM [inhibitor, single point].
`Cc1cc(C)nc(N/N=C/C=C/c2ccccc2)n1` was tested, and the Potency was inconclusive: 26.9 µM [inhibitor, partial curve].
With `CC(=O)c1ccc(OCc2cc(C(=O)N(C)C3CCOC3)no2)cc1` (stereo not drawn) the Potency was “inactive”.
In the case of `Cc1c(C(=O)Nc2ccc(Cl)cc2)c2ccccn2c1CCc1ccncc1`, the Potency is reported as active: 3.01 µM.
`CC(C)c1ccc(Oc2cccc(C(=O)/C(C#N)=C/N(C)C)c2)cc1` was tested, and the Potency was inconclusive: 37.9 µM [inhibitor, single point].
With `CC(C)C1N=C2c3ccccc3N=C(SCC(=O)NCc3ccccc3Cl)N2C1=O` (stereo not drawn) the Potency was “inactive”.
`N#C/C(=N/Nc1ccc([N+](=O)[O-])cc1)C(=N)N1CCCCC1` was tested, and the Potency was active: 9.53 µM.
In the case of `c1ccc(-c2cc3c(-n4cccc4)ncnc3o2)cc1`, the Potency is reported as inconclusive: 30.1 µM [inhibitor, partial curve, poor fit].
`N=c1cc(C2(O)CCCCC2)n2c(nc3ccccc32)s1` was tested, and the Potency was active: 0.675 µM.
In the case of `CCCCOC(=O)c1ccc(O)cc1`, the Potency is reported as inconclusive: 37.9 µM [inhibitor, single point].
With `Cc1cc(C)nc(/N=C(\N)N2CCc3ccccc32)n1` the Potency was inconclusive: 23.9 µM [inhibitor, partial curve, poor fit].
For `CC(C)c1ccc(OCc2nc(-c3ccccn3)no2)c(Br)c1`, the Potency was active: 0.953 µM.
In the case of `Cc1cccc(C(=O)Nc2cc(OCc3cccc(F)c3)c(Cl)cc2Cl)c1`, the Potency is reported as inconclusive: 21.3 µM [inhibitor, partial curve, poor fit].
For `CC(C)c1c(C(=O)N/N=C/c2c[nH]c3ccccc23)nnn1-c1nonc1N`, the Potency was inconclusive: 26.9 µM [inhibitor, partial curve, poor fit].
In the case of `CCCCN=C1NN=C(c2ccc3c(c2)OCCO3)CS1`, the Potency is reported as active: 3.01 µM.
For `COc1ccc(-c2noc(CSc3nc(C)cc(=O)[nH]3)n2)cc1OC`, the Potency was inconclusive: 13.5 µM [inhibitor, partial curve, poor fit].
`CN(C)c1ccc(NC(=O)CN2CCN(CC(=O)Nc3ccc(F)cc3)CC2)cc1` was tested, and the Potency was inconclusive: 26.9 µM [inhibitor, single point].
With `O=C(O)Cc1ccc(O)c(O)c1` the Potency was inconclusive: 9.53 µM [inhibitor, partial curve, poor fit].
For `NC(=O)c1ccsc1NC(=O)COC(=O)c1ccccc1NCc1ccco1`, the Potency was inconclusive: 23.9 µM [inhibitor, partial curve, poor fit].
For `CSc1ccccc1NC(=S)NCc1ccc(Cl)cc1`, the Potency was inconclusive: 30.1 µM [inhibitor, single point].
`COc1ccccc1-c1noc2ncnc(Nc3ccc4c(c3)OCO4)c12` was tested, and the Potency was “inactive”.
For `Clc1ccc(CNc2ccc(CNc3ncn[nH]3)cc2)cc1`, the Potency was inconclusive: 37.9 µM [inhibitor, partial curve, poor fit].
In the case of `COc1cc(Cl)c(NC(=O)CN(C)S(=O)(=O)c2ccc3c(c2)CCCC(=O)N3)c(OC)c1`, the Potency is reported as “inactive”.
With `Cc1ccc2oc(-c3ccc(NC(=O)c4cccc(F)c4)c(C)c3)nc2c1` the Potency was inconclusive: 13.5 µM [inhibitor, partial curve].
For `Cc1ccc(NC(=S)Nc2ccccn2)cc1C`, the Potency was active: 16.9 µM.
In the case of `COc1ccc(C(=O)O/N=C(\N)c2ccccc2Cl)cc1OC`, the Potency is reported as inconclusive: 30.1 µM [inhibitor, single point].
For `CC1CCCCN1C(=O)COC(=O)c1cccc(NS(=O)(=O)c2ccccc2)c1` (stereo not drawn), the Potency was inconclusive: 23.9 µM [inhibitor, single point].
With `Cc1ccc(NCCC(=O)c2cccs2)cc1` the Potency was active: 21.3 µM.
For `CCOc1ccc(CNC(=O)C2=Cc3cc(Br)ccc3OC2)cc1OC`, the Potency was “inactive”.
In the case of `COc1ccc(Cl)cc1NC(=O)CSc1nc(=O)[nH]c2c1CCCC2`, the Potency is reported as “inactive”.
For `Cc1ccccc1OC(C)c1nc(-c2ccccc2)no1` (stereo not drawn), the Potency was inconclusive: 30.1 µM [inhibitor, partial curve, poor fit].
For `CCOc1ccc(/C=C/C(=O)Oc2ccccc2)cc1`, the Potency was active: 1.51 µM.
`[O-]/[N+](=C\c1ccccc1)c1ccc(Br)cc1` was tested, and the Potency was inconclusive: 10 µM [inhibitor, full curve, poor fit].
